Measurements published in PubChem BioAssay AID1508624 (National Center for Advancing Translational Sciences (NCATS), 2021).
Hit rate of the full screen: of about 48,000 compounds, about 120 (0.25%) were called active. Roughly 4% stayed inconclusive and do not appear here. Calls follow the shape of the dose curve; as a rule, active = well fitted activation curve with a large enough effect; inconclusive = small, poorly fitted or top-dose-only effect, or another doubt; inactive = no such curve, though single readings can be large or run the other way. This is one part of the list.

Test: Primary qHTS for Identification of Small Molecule Activators of Huntingtin-Antisense Promoter Activity; also: nearly all actives have a fitted effect of over 55% in size
Conditions: HEK293 HTT-AS promoter firefly luciferase reporter, 24 h; series mostly up to 57.5 µM; activity change, positive = activation: at the top concentration
In short: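 Firefly luciferase readout (Dual-Glo, 10 min RT) after 24 h, 37 °C compound exposure (final up to 57.5 uM) of HEK293 reporter cells cultured 24 h beforehand; PTC124 at 50 uM final as control inhibitor; activity scaled vehicle 0%, zero RLU -100%.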

Activity change, positive = activation, inactive:
Cc1ccccc1NC(=O)c1c(NC(=O)c2cccs2)sc2c1CCC(C)C2 (stereo not drawn) -8.97%, O=C(Nc1ccc2nn(-c3ccc(Cl)cc3)nc2c1)c1cc2ccccc2o1 -9.52%, COc1ccc(C(=O)NCC(c2ccco2)S(=O)(=O)c2cccs2)cc1 (stereo not drawn) 15.3%, N#Cc1nc(/C=C/c2ccc(F)cc2)oc1NC1CCCCC1 -4.77%, COc1ccc(N(C)C(=O)C2CCN(S(=O)(=O)c3cc(Br)cc4c3N(C(C)=O)CC4)CC2)cc1 3.04%, Cc1ccc(OCc2cc(=O)n3ccsc3n2)c(NC(=O)c2ccco2)c1 -10.7%, CCOC(=O)c1cc(-c2ccccc2)n(CCC(=O)NCCc2ccc(OC)c(OC)c2)c1C -16.8%, Cc1c(F)cc2c(=O)c(C(=O)O)cn3c2c1CCC3C (stereo not drawn) -14.3%, COc1ccc(-c2nc3cc(NC(=O)c4cc5ccccc5o4)ccc3o2)cc1 9.89%, O=C(Nc1ccc2nc(SCC(=O)N3CCOCC3)sc2c1)c1ccc(Cl)cc1 -33%, O=C(c1ccccc1)N1CCCCC1CCN1CCCCC1 (stereo not drawn) -10.1%, CCN(Cc1ccccc1)C(=O)C(CC(C)C)NS(=O)(=O)c1ccc2c(c1)CCN2C(C)=O (stereo not drawn) 0%, Cc1cccc(N2CCN(C(=O)c3nn(C)c4c3CS(=O)(=O)c3ccccc3-4)CC2C)c1 (stereo not drawn) -29.3%, Cc1ccc(-n2c(=O)c3ccccc3n(CC(=O)Nc3cccc(C(F)(F)F)c3)c2=O)cc1 -38.5%, N#C/C(=C\c1ccc(Cl)cc1)c1nc(-c2cc3c(ccc4ccccc43)oc2=O)cs1 -9.3%, O=C(Cn1c(=O)n(-c2ccccc2)c(=O)c2sc3ccccc3c21)NC1CCCC1 -5.11%, Cc1ccc(C)c(Nc2nn3c(=O)c4ccc(C(=O)NCc5cccs5)cc4nc3s2)c1 -36.7%, COc1cccc(N2CCN(c3ncnc4onc(-c5ccc(Cl)cc5)c34)CC2)c1 -29.8%, CN(C1CCCCC1)S(=O)(=O)c1ccc2c(c1)c(=O)c(C(=O)NCc1ccc(Cl)cc1)cn2C 28.9% [at 11.5 µM, percent change from vehicle, -100% = no light], O=C(CN1C(=O)CC(c2ccc(F)cc2)=Nc2ccccc21)NCc1ccccc1Cl -31.4%, CSc1ccc(CNC(=O)Cn2ccc3cc(S(=O)(=O)N4CCCC4)ccc32)cc1 -32.6%, COc1ccccc1CNC(=O)CS(=O)(=O)Cc1nc(-c2ccccc2C)oc1C -24.1%, CN(C)c1ccc(C(=O)NCc2ccc3c(c2)CCN3C(=O)c2ccccc2)cc1 -15%, CC(C)CCNC(=O)CSc1nc2ccccc2nc1Cc1ccc(Cl)cc1 -6.39%, CC1CCN(c2nc(-c3ccc(Br)cc3)nc3ccccc23)CC1 -8.78%, CN(C)c1ccc(CNC(=O)c2sc3ncccc3c2-n2cccc2)cc1 -30.8%, Cc1cc(C)cc(NC(=O)CCN2C(=O)c3ccccc3Sc3ncccc32)c1 -27.4%, COc1cc(Cl)c(NS(=O)(=O)c2ccc(-c3coc(C)n3)cc2)c(OC)c1 -52.5%, CC1CCCCN1CCCNC(=O)Cn1ncc2c3ccccc3n(Cc3ccccc3F)c2c1=O (stereo not drawn) 3.18%, Cc1ccc(-c2cc(C(F)(F)F)c(C#N)c(SCC(=O)Nc3ccccc3F)n2)cc1 -20.7%, CCN(c1ncnc2c1cnn2-c1cccc(Cl)c1)C1CCCCC1 -59.5%, COCCn1c(C)cc(O)c(C(c2ccc(Cl)cc2)N2CCCCC2)c1=O (stereo not drawn) 2.87%, Cc1cc(C)c(NC(=O)CN2C(=O)CCSc3ccc(S(=O)(=O)N4CCCC4)cc32)c(C)c1 -10.4%, COc1cccc(CNC(=O)CN2C(=O)CSc3ccc(S(=O)(=O)N4CCCC4)cc32)c1 -3.82%, COc1ccc(C2C(=O)N(C3CCCCC3)CC(=O)N2C2CCCCC2)cc1 (stereo not drawn) -15.6%, Cc1ccc2oc(-c3cc(NC(=O)/C=C/c4ccco4)ccc3Cl)nc2c1 9.29%, CC(=O)Nc1nonc1-c1nc2ccccc2n1Cc1ccccc1Br -30.3%, COc1cc2c(cc1OC)C(COc1ccc3c(C)cc(=O)oc3c1)N(C(=O)CC(C)C)CC2 (stereo not drawn) 3.51%, CCC1Nc2cc(Cl)c(S(N)(=O)=O)cc2S(=O)(=O)N1 (stereo not drawn) -8.24%, Brc1ccc2nc(SCCOc3ccccc3)[nH]c2c1 16.4%, Cc1ccc2c(c1)N(C(=O)Nc1cccc3c1CCCC3)CC(C)O2 (stereo not drawn) -30.6%, Cc1ccccc1CN1CCCN(CC(=O)Nc2ccc3c(c2)OCCO3)S1(=O)=O -8.4%, COc1ccc(NC(=O)CCc2c(C)nc3c(-c4ccc(F)cc4)c(C)nn3c2C)c(OC)c1 -4.91%, COC(=O)c1cc(NC(=O)c2ccc(-c3ccc(Cl)cc3Cl)o2)cc(C(=O)OC)c1 -13%, CCOC(=O)c1noc2nc(C)n(Cc3ccc([N+](=O)[O-])cc3)c(=O)c12 -4.92%, Cc1cccc(Cn2nnc3c(=O)[nH]c(C4CCN(C(=O)c5ccc(F)cc5)CC4)nc32)c1 -14.3%, CN1CCN(C(CNC(=O)c2ccccc2)c2ccc3c(c2)OCO3)CC1 (stereo not drawn) -1.07%, O=C(NCc1cccc(Cl)c1)C1CCCN(c2ncnc3onc(-c4ccc(F)cc4)c23)C1 (stereo not drawn) -25.3%, CCn1c(=O)cc(SCC(=O)N2CCN(c3ccccc3F)CC2)c2ccccc21 7.36%, CCOc1ccc(NC(=O)c2c(NC(=O)c3cccs3)sc3c2CCC(C(C)(C)C)C3)cc1 (stereo not drawn) -5.56%, COc1ccccc1NC(=O)c1cc(S(=O)(=O)NCCC2=CCCCC2)ccc1F -27.3%, CCOc1ccc(NC(=O)CN(C)S(=O)(=O)c2cnc[nH]2)cc1 9.03%, COc1ccc(NC(=O)NC(C)c2c(-n3cccc3)sc3c2CCN(C)C3)c(OC)c1 (stereo not drawn) -11.8%, Nc1c(C(=O)Nc2cccc(C(F)(F)F)c2)c2ccccn2c1C(=O)c1ccccc1 8.28%, CC(C)(C)C(=O)Cn1c(=O)n(-c2ccc(Cl)c(Cl)c2)c(=O)c2c3c(sc21)CCCC3 -18%, Cc1cc(C)cc(N2CCn3c2nc2c3c(=O)n(CCCc3ccccc3)c(=O)n2C)c1 -0.999%, Cc1ccc(CNC(=O)CCCn2c(=O)c3ccccc3n(Cc3ccc(Cl)cc3)c2=O)cc1 -12.9%, CN(C(=O)CSc1nnc(-c2ccc([N+](=O)[O-])cc2)o1)c1ccccc1 -11.7%, Cc1ccc(CNC(=O)CCC(=O)N2CCSc3ccccc32)cc1 -7.97%, COc1ccc(CCNC(=O)Cn2cc(C(=O)c3ccc(F)cc3)c(=O)c3ccc(C)nc32)cc1OC -19.1%, CCOc1ccc(-c2noc(CSc3nnc(Cc4ccccc4)n3-c3cccc(C)c3)n2)cc1 -53.9%, Cc1ccc(-c2nc3cc(C(C)C)ccc3o2)cc1NC(=O)c1cc([N+](=O)[O-])ccc1N1CCOCC1 -43.5%, COCCCNC(=O)C1CCCN(c2nn3cc(-c4ccc(C)cc4)nc3s2)C1 (stereo not drawn) -30.6%, CNC(=O)C1CCN(c2nc3ccccc3nc2C(F)(F)F)CC1 -2.08%, CCc1ccc(NC(=O)N2CCN(C(=O)c3nsc4ccccc34)CC2)cc1 -33.6%, O=C(Nc1ccc(C(F)(F)F)cc1)N1CCC(N2CCCCC2)CC1 -11.9%, COc1cc(Cl)c(C)cc1NC(=O)c1cnc2c(-c3cccc(C)c3)c(C)nn2c1C -9.79%, Cc1ccsc1CN1CCc2nc(N3CCN(c4ccccc4F)CC3)ncc2C1 -28.1%, CNC(=O)c1ccc(CSc2nc3ccncc3n2Cc2ccc(C)cc2)cc1 -14.3%, CCCN(C(=O)Cn1cc(S(=O)(=O)N2CCN(c3ccccc3F)CC2)c2ccccc2c1=O)c1cccc(C)c1 -11.8%, COc1cccc(CNC(=O)Cn2c(C)c3cnn(-c4ccccc4)c(=O)c3c2C)c1 -18.4%, CCOc1ccc(OCC)c(Nc2nc3ccc(Cl)cc3n3cnnc23)c1 -3.14%, CCC(C)NC(=O)CCc1c(C)nc2cc(-c3ccc(OC)cc3OC)nn2c1C (stereo not drawn) -2.88%, Cc1cccc(CCNC(=O)C2CCN(c3nc4ccccc4nc3C(F)(F)F)CC2)c1 0.91%, CCc1cccc(NC(=O)c2ccc(CNS(=O)(=O)c3ccc4c(c3)C(C)(C)C(=O)N4C)cc2)c1 -48%, Cc1ccc(-n2ncc3c(NCC(C)C)ncnc32)c(C)c1 17.2%, COc1ccccc1-c1cc2nc(C)c(CCC(=O)Nc3cc(C)ccc3C)c(C)n2n1 -43.5%, CCc1ccc(NC(=O)Cn2cnc3sc(C)c(S(=O)(=O)N4CCN(c5ccccc5OC)CC4)c3c2=O)cc1 9.82%, Cc1ccc(C)c(NC(=O)Nc2cccc(-c3cn4cccnc4n3)c2)c1 -0.825%, Cc1oc(-c2ccccc2F)nc1CSc1nnc(C)n2c1cc1occc12 -4.66%, CC(C)(C)OC(=O)N1CCC(c2c(C(=O)N3CCOCC3)cnn2-c2cccc(F)c2)CC1 0.567%, COC(=O)c1ccccc1-n1cc2c(c1-c1cccc(C)c1)c(=O)n(C)c(=O)n2C -17.1%, CCOC(=O)c1cnc2ccc(Cl)cc2c1Nc1ccc(N2CCOCC2)cc1 -37.8%, O=C(CSc1nc2c(c(=O)[nH]1)CN(Cc1ccc3c(c1)OCO3)CC2)Nc1ccc(F)c(F)c1 -13.6%, Cc1cccc(-c2nc3ccccc3n3c(-c4ccccc4)c4c(=O)n(C)c(=O)n(C)c4c23)c1 -1.24% [at 11.5 µM, percent change from vehicle, -100% = no light], O=C(Nc1ccc(F)c(Cl)c1)N1CCC(CN2CCc3ccccc3C2)CC1 -5.16%, CC(C)(C(=O)O)c1ccc(C(O)CCCN2CCC(C(O)(c3ccccc3)c3ccccc3)CC2)cc1 (stereo not drawn) -3.63%, O=c1cc(N2CCOCC2)oc2c(-c3cccc4c3sc3ccccc34)cccc12 -15%, CC(C)Oc1ccc(CNC(=O)Cn2ncn3nc(-c4cccs4)cc3c2=O)cc1 -25.7%, COC(=O)c1ccccc1-n1c(CCC(=O)O)ccc1-c1ccccc1 6.58%, O=C(NCc1ccccc1Cl)c1cc2cccc3c2n1CCS3 -42.9%, COc1cccc(CNC(=O)c2ccc3c(c2)nc2n3CCC(C)C2)c1OC (stereo not drawn) 4.46%, CCOC(=O)C1CCCN(C(=O)c2[nH]c3ccccc3c2Sc2ccc(Cl)cc2)C1 (stereo not drawn) -25.8%
